The campaign covered roughly 220,000 compounds. About 16,000 (7.3%) were called active. The shares of active, inactive and inconclusive entries below differ from those in the screen. The call rests on the fitted dose curve; in most records, active means well fitted inhibition curve with a large enough effect (not every such curve was filed as active); inconclusive means small, poorly fitted or top-dose-only effect, or another doubt; inactive means no such curve, though single readings can be large or run the other way. Potencies of inconclusive entries are left out as doubtful fits.
Target: Aldehyde dehydrogenase 1A1 (Homo sapiens) (UniProt P00352)
Chain of UniProt P00352 (P00352 whole entry, looked up): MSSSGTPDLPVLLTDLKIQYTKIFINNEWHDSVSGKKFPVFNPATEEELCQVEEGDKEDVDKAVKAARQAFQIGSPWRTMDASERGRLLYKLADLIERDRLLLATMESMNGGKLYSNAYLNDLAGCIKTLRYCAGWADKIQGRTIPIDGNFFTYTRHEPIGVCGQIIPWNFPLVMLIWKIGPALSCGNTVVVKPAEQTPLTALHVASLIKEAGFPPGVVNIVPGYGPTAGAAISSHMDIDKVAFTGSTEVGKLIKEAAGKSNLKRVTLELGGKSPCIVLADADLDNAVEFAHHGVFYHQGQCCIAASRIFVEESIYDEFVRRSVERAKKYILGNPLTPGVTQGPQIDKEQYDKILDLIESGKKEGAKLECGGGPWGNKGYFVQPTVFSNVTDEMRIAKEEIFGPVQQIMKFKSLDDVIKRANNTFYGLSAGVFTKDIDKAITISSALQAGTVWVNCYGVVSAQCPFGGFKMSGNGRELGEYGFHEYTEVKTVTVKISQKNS
Experiment: qHTS Assay for Inhibitors of Aldehyde Dehydrogenase 1 (ALDH1A1);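 on activity, negative = inhibition: plate controls were no enzyme wells and a reference inhibitor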
Settings: Purified ALDH1A1, NADH fluorescence, propionaldehyde substrate; series mostly up to 75.3 µM; activity, negative = inhibition: at the top concentration
Potency means the concentration at half of the fitted maximal effect; tags describe the fitted curve by direction and shape.

SMILES	Potency	activity, negative = inhibition
O=C(COc1ccccc1)NC(=S)Nc1ccc2c3c(cccc13)CC2	inconclusive [inhibitor, single point]	
Cc1cc(C)c(OCC(O)CN2CCN(c3ccccn3)CC2)c(C)c1 (stereo not drawn)	inconclusive [inhibitor, single point]	
COc1ccc2cc(CN(Cc3ccco3)C(c3nnnn3C3CCCCC3)C(C)C)c(=O)[nH]c2c1 (stereo not drawn)	active: 15.8 µM	
CSc1ccccc1NC(=O)CN1CCN(Cc2ccccc2)CC1		inactive: -6.49%
COc1cccc(-c2nc3sc4c(c3c(=O)[nH]2)CCCCC4)c1	inconclusive [inhibitor, full curve]	
Cc1ccccc1NC1=C/C(=N\S(=O)(=O)c2cccs2)c2ccccc2C1=O	inconclusive [inhibitor, single point]	
CCC1(O)c2ccccc2-c2ncccc21 (stereo not drawn)		inactive: 9.4%
COCCn1c(=O)c(-c2cccc(C#N)c2)nc2cnc(OCc3ccccc3)nc21	inconclusive [inhibitor, partial curve]	
COc1ccccc1/C=C/C(=O)NCc1ccccn1	inconclusive [inhibitor, partial curve]	
O=C(C1=C(O)C(=O)N(Cc2ccccc2)C1c1ccncc1)c1ccco1 (stereo not drawn)	inconclusive [inhibitor, single point]	
COc1ccc(-n2nc(C(=O)NCC(=O)N3CCN(c4ccccn4)CC3)c3ccccc3c2=O)cc1	active: 28.2 µM	
CCC(C)c1ccccc1NC(=O)C(C)N(C)Cc1cccc(OC)c1 (stereo not drawn)	inconclusive [inhibitor, single point]	
Cc1cc(NC(=O)CN2C(=O)CC(c3ccco3)Sc3ccccc32)no1 (stereo not drawn)	active: 14.1 µM	
COc1ccc(NC(=S)NC(NC(=O)c2cccc3ccccc23)C(Cl)(Cl)Cl)c([N+](=O)[O-])c1 (stereo not drawn)	active: 28.2 µM	
COc1ccc(C(=S)N2CCN(c3cccc(Cl)c3)CC2)c(OC)c1	active: 20 µM	
CCCCNS(=O)(=O)c1ccc(NC(=O)Cc2ccccc2[N+](=O)[O-])cc1	inconclusive [inhibitor, single point]	
O=C(CCCCCn1c(=O)[nH]c2ccsc2c1=O)N1CCCCC1		inactive: -1.37%
COc1ccc(Cn2c(=O)[nH]c3cc(C(=O)NCCc4ccc(S(N)(=O)=O)cc4)ccc3c2=O)cc1		inactive: 9.46%
CCc1cccc(C)c1N(C(=O)Cn1c(=O)[nH]c2ccccc21)C(C)COC (stereo not drawn)	inconclusive [inhibitor, single point]	
CC(=O)Nc1ccc(S(=O)(=O)NCC2CCC(C(=O)N3CCN(c4ccccn4)CC3)CC2)cc1 (stereo not drawn)		inactive: -1.96%
COc1ccccc1/C=C/C(=O)NCC(=O)N/N=C/c1cccnc1	inconclusive [inhibitor, partial curve]	
O=C1OC(/C=C/c2ccccc2)=NC/1=C/c1ccco1	active: 11.2 µM	
CN(C(=S)Nc1cccnc1)c1ccc(O)cc1	active: 14.1 µM	
Cc1ccc(Br)cc1	inconclusive [inhibitor, single point]	

SMILES	Potency	activity, negative = inhibition
O=S(=O)(NC1CCCCC1Sc1ncccn1)c1ccc(Cl)cc1 (stereo not drawn)	inconclusive [inhibitor, partial curve]	
COC(=O)Nc1ccccc1C(=O)N1CCCCC1	inconclusive [inhibitor, single point]	
O=C(O)c1ccc(COc2ccccc2C=C2C(=O)c3ccccc3C2=O)cc1	inconclusive [inhibitor, partial curve, poor fit]	
COc1c(-c2coc3cc4c(cc3c2=O)CC(OC(C)=O)C(C)(C)O4)ccc2c1C=CC(C)(C)O2 (stereo not drawn)		inactive: -4.3%
Cc1cccc(NC(=O)CSc2nncn2-c2ccccn2)c1	inconclusive [inhibitor, single point]	
COc1ccc(-n2c(C)cc(/C=C3\C(=O)NN(c4ccccc4)C3=O)c2C)cc1	inconclusive [inhibitor, partial curve]	
Cc1occc1C(=O)N1CCN(S(C)(=O)=O)CC1	active: 20 µM	
NNC(=O)/C(=C\c1ccc(Br)cc1)NC(=O)c1cccs1		inactive: 7.73%
CC(NC(=O)CCC(=O)c1ccc(F)cc1)C1CC2CCC1C2 (stereo not drawn)		inactive: -2.26%
CCOC(=O)c1c(NC(=O)CN2CCOCC2)sc2c1CCCC2	inconclusive [inhibitor, single point]	
Cc1cc(C(=O)Nc2ccccc2N2CCOCC2)c(C)o1	inconclusive [inhibitor, single point]	
Cc1ccc(/C([O-])=C(/C(=S)Nc2ccc(SC(F)F)cc2)[n+]2ccccc2)cc1[N+](=O)[O-]	active: 4.47 µM	
Oc1c(C=Nc2cccc3nsnc23)ccc2ccccc12	active: 2.82 µM	
CN(Cc1c(C(=O)N(C)Cc2ccccc2)nc2ccccn12)CC1Cc2ccccc2O1 (stereo not drawn)	active: 14.1 µM	
COc1ccc(CC(=O)Nc2ccc(S(=O)(=O)NCC3CCCO3)cc2)cc1 (stereo not drawn)	active: 10 µM	
Cn1cc(C(=O)NC2C3CC4CC(C3)CC2C4)cn1 (stereo not drawn)		inactive: 1.26%
Cc1ccc2nc(-c3ccc(Br)o3)oc(=O)c2c1	inconclusive [inhibitor, partial curve]	
Nc1c(C(=O)Nc2ccc(S(=O)(=O)N3CCCC3)cc2)sc2nc3cc4c(cc3cc12)CCC4		inactive: 11.8%
Cc1ccc(S(=O)(=O)NCc2ccc(C(=O)NCCN(Cc3ccccc3)C(C)C)cc2)cc1	inconclusive [inhibitor, single point]	
COc1ccc(NC(=O)Cn2ncc(Cl)c(Cl)c2=O)cc1S(=O)(=O)N1CCOCC1	active: 11.2 µM	
CCCN(CCC)C(=O)CSc1nc2n[nH]c(C)c2c(=N)n1-c1ccc(OC)cc1	inconclusive [inhibitor, partial curve]	
COc1cccc(C2SCC(=O)N2c2ccc(Cl)cc2)c1OC (stereo not drawn)		inactive: -8.34%
Cc1sc2nc(SCC(=O)c3cccs3)n(Cc3ccco3)c(=O)c2c1C	inconclusive [inhibitor, single point]	
COc1ccc(C(NC(=O)c2ccc(-c3ccccc3)cc2)c2ccccc2)cc1 (stereo not drawn)	inconclusive [inhibitor, single point]	

Source: PubChem BioAssay AID1030 (National Center for Advancing Translational Sciences (NCATS), 2008)
